Test results from PubChem BioAssay AID488969 (Vanderbilt High Throughput Screening Facility, 2010).
Over roughly 110,000 compounds, “z-score” has its median near -0.1; the highest 2% begin near 2. The list shows a part of the results. Calls of active or inactive are those of the source.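 How the source made its calls: active means z-score in the third read window above 3 or below -3; inactive means the rest.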

Target: Metabotropic glutamate receptor 8 (Rattus norvegicus) (UniProt P70579)
Assay: rat mGluR8 modulators via GIRK flux, primary screen, cell-based, thallium flux, HTS (AID 488969)
Conditions: HEK293 rat mGluR8, GIRK (G protein-gated inwardly rectifying potassium channel) thallium flux, FluoZin2; at 10 µM; stronger effect = higher value; submaximal glutamate (EC20) added with thallium

Chain of UniProt P70579 (P70579 whole entry, looked up): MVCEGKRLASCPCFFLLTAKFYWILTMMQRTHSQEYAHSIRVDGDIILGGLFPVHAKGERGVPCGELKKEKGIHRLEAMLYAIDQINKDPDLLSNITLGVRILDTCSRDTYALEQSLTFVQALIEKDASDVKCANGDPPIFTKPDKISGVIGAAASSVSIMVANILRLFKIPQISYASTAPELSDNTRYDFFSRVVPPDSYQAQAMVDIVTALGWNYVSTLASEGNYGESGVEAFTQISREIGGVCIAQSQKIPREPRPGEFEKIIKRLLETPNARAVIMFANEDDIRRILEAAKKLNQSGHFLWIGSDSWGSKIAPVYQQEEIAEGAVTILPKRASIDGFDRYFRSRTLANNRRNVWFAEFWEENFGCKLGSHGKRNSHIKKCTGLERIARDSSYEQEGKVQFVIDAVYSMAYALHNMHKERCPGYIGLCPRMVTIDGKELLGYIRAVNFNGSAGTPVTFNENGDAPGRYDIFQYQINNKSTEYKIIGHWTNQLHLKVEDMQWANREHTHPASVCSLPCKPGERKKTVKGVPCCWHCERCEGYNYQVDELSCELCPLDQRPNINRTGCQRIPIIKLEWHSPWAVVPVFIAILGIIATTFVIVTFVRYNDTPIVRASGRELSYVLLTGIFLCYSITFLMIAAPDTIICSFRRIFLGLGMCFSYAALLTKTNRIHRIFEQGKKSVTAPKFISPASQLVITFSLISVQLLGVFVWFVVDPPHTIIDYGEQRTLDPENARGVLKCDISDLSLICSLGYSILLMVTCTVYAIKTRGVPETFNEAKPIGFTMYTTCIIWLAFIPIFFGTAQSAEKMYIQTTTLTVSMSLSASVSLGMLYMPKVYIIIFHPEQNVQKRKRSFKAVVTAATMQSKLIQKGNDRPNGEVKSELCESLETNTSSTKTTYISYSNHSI

In order of rising z-score:
1. COc1ccc(-c2cn3nc4c(nc3n2)CCCC4)cc1  -2.27
2. Cc1cc(C)cc(-c2nnc(SCC(=O)N3CCN(C(=O)c4ccco4)CC3)o2)c1  -1.82
3. CCSC1=C(C#N)C(c2ccccc2Cl)CC(=O)N1 (configuration not stated)  -1.63
4. O=C(c1cccc(F)c1)N1CCC(N2CCCCCC2)CC1  -1.16
5. CCOc1ccc(-c2n[nH]c(C)c2Oc2ccccc2OC)c(O)c1  -0.969
6. Fc1ccc(CSc2nc3ncccc3[nH]2)cc1  -0.857
7. CCCCS(=O)(=O)CC(COc1ccccc1)OC(=O)c1ccccc1 (configuration not stated)  -0.779
8. CC1(C)Cc2c(C#N)c(N3CCN(C(=O)c4ccccc4Cl)CC3)nc(-c3ccco3)c2CS1  -0.77
9. Cc1ccc2c(c1)c1c(n2C)C(=O)CCC1  -0.768
10. COc1cc(Br)cc2cc(C(=O)N3CCN(C(=O)c4ccco4)CC3)c(=O)oc12  -0.705
11. CCC(C(=O)Nc1nc(C)cs1)c1ccccc1 (configuration not stated)  -0.691
12. O=C(CCc1ccccc1)Nc1cc(Cl)ccc1O  -0.624
13. Cc1nc2scc(-c3ccccc3)c2c(=O)n1N  -0.583
14. CCCCn1cnc2c(sc3nc4c(cc32)CSC(C)(C)C4)c1=O  -0.573
15. CCOC(=O)C(=O)Nc1ccc(S(=O)(=O)N2CCOCC2)cc1OC  -0.497
16. Cc1nc(NCC2CCCO2)c2oc3ccccc3c2n1 (configuration not stated)  -0.493
17. O=C(OC(c1ccccc1)c1nccc2ccccc12)c1cccc([N+](=O)[O-])c1 (configuration not stated)  -0.443
18. O=C(Nc1ccccc1)c1c(F)cccc1F  -0.432
19. Cc1nc2cc(C(F)(F)F)ccc2n1C1CCN(CC(=O)NC(C)(C)C)CC1  -0.421
20. Cc1ccc(N(CC(=O)N/N=C/c2cccc(Br)c2)S(C)(=O)=O)cc1  -0.412
21. CCCCCC(O)CCc1n[nH]c(=S)n1-c1ccccc1 (configuration not stated)  -0.378
22. C=CCNC(=O)NC(=O)COC(=O)/C(C#N)=C/c1cc(C)n(CCC(C)C)c1C  -0.372
23. CC(C)NC(=O)CSc1nc(-c2cccs2)cc(-c2ccccc2)c1C#N  -0.365
24. CNCCCNCc1ccc(SC)cc1  -0.34
25. CCOC(=O)N1CCN(C(=O)CSc2nnc(-c3c[nH]c4ccccc34)n2CCOC)CC1  -0.338
26. CS(=O)(=O)N(Cc1ccccc1)c1ccc(C(=O)N2CCN(c3cccc(Cl)c3)CC2)cc1  -0.336
27. CN(C)S(=O)(=O)c1cccc(NC(=O)COC(=O)CCC(=O)c2ccc(F)cc2)c1  -0.326
28. O=C1CC(c2ccccc2F)c2cc3c(cc2N1)CCC3 (configuration not stated)  -0.312
29. C=CCn1c(=O)c(C#N)cc2c(=O)n3ccccc3nc21  -0.302
30. Cn1c(=O)c2c(nc(SCC(=O)N3CCc4ccccc43)n2Cc2ccc(F)cc2)n(C)c1=O  -0.298
31. Cc1ccc(-n2nnnc2Sc2nc([N+](=O)[O-])nn2C)cc1  -0.273
32. CCOc1ccccc1OCCn1ncc2ccc(OC)c(OC)c2c1=O  -0.271
33. C=CCn1c(O)c(CN2CCN(Cc3ccccc3)CC2)c(C)c(C#N)c1=O  -0.264
34. O=C(c1ccco1)N1CCN(c2ncnc3scc(-c4ccccc4)c23)CC1  -0.262
35. N#Cc1cc(C#N)c(N2CCN(c3cccc(Cl)n3)CC2)nc1N  -0.256
36. Cc1ccc(-n2cc(-c3ccccc3)c3c(NN4CCOCC4)ncnc32)cc1  -0.256
37. C=CCOC(=O)c1ccc(-n2cncn2)nc1  -0.247
38. CCCCCCNC(=O)c1c(O)c2ccccc2[nH]c1=O  -0.245
39. Cc1cccc(N2CCN(S(=O)(=O)c3cnc[nH]3)CC2)c1C  -0.236
40. CCCSc1nnc(Cc2cc(=O)[nH]c(=O)[nH]2)n1-c1cc(C)ccc1C  -0.222
41. O=C(Nc1ccc(Cl)cc1)c1ccc(-n2cncn2)c([N+](=O)[O-])c1  -0.213
42. Cc1cc(C)n(CC(=O)NCc2cc(-c3nn(C)c(=O)c4ccccc34)ccc2C)n1  -0.207
43. CCOC(=O)c1sc2nc(SCC(=O)NCc3ccco3)n(Cc3ccccc3)c(=O)c2c1C  -0.202
44. Cc1cccc2cc(COC(=O)c3ccccc3)c(=O)[nH]c12  -0.202
45. CCOC(=O)C1=C(C)NC(C)=C(C(=O)OCC)C1/C=C/c1ccccc1OC  -0.187
46. O=C(Nc1ccc2c(c1)OCCO2)C1CCN(C(=O)c2ccc(F)cc2)CC1  -0.178
47. CCC(C)c1ccc(NC(=O)C/C(C)=N/NC(=O)c2cnccn2)cc1 (configuration not stated)  -0.178
48. Cc1ccc(C(=O)Nc2cnc3ccccc3c2)cc1  -0.176
49. O=C(Nc1ccc(N2CCOCC2)c(F)c1)c1ccncc1  -0.174
50. CC(C)(C)c1ccc(OCC(=O)OCCNC(=O)c2cccnc2)cc1  -0.171
51. COc1ccc(N2CCN(Cc3oc(CO)cc(=O)c3O)CC2)cc1  -0.152
52. CC1=C(C)C(=O)C(N2CCOCC2)=CC1=O  -0.148
53. Cn1c(=O)c2c(nc(N3CCOCC3)n2CCSc2ncccn2)n(C)c1=O  -0.14
54. O=C(CCCn1c(=S)[nH]c2cc3c(cc2c1=O)OCO3)NC1CC1  -0.139
55. COc1ccc(NC(=O)c2cccnc2)c(OC)c1  -0.135
56. O=C(O)CSc1nc2ccccc2[nH]1  -0.128
57. O=C(Nc1cnn(Cc2c(Cl)cccc2Cl)c1)c1ccc([N+](=O)[O-])cc1  -0.128
58. CCC(=O)NC(=S)Nc1ccc(NC(=O)c2ccc(OC)cc2)cc1  -0.111
59. COc1ccc(-c2csc(NC(=O)CSc3ccc(Br)cc3)n2)c(OC)c1  -0.107
60. CCOc1cc(C(=O)Nc2ccc(C)cc2C)ccc1OCC(=O)N1CCCCC1  -0.105
61. Cc1ccccc1C(=O)Nc1ccc(C(=O)NNC(=O)CCCOc2ccc(Cl)cc2Cl)cc1  -0.102
62. CN(CCc1ccccn1)C1CC(=O)N(c2ccc(Cl)cc2)C1=O (configuration not stated)  -0.096
63. O=C(NC1CCCCC1)NC1CC2CCCC(C1)N2C1CCCC1 (configuration not stated)  -0.0898
64. COc1ccc(-c2cc(-c3cccs3)nc(OC)c2C#N)cc1OC  -0.0839
65. CCOCCn1c(CN2CCN(c3cccc(Cl)c3)CC2)nc2c1c(=O)n(C)c(=O)n2C  -0.0773
66. O=C(NC1CCS(=O)(=O)C1)C1CCCN(S(=O)(=O)c2ccc(Cl)cc2)C1 (configuration not stated)  -0.0767
67. O=C(N/N=C1/CC2C=CCC12)c1ccco1 (configuration not stated)  -0.0648
68. O=C(NCc1ccco1)c1ccccc1NS(=O)(=O)c1ccc2c(c1)OCCO2  -0.0568
69. Nc1nsnc1C(=O)NCCO  -0.056
70. CCCCCCCCCCCCCCCC[n+]1ccc(C(N)=O)cc1  -0.0531
71. C=CCSc1nc2ccccc2n1S(=O)(=O)c1ccc(C)cc1  -0.0464
72. NC(=O)CNC(=O)[C@@H]1CC2(CC(c3ccc(Cl)cc3)=NO2)CN1C(=O)c1ccc(Br)cc1 (some centres not stated)  -0.0418
73. O=c1[nH]c(=O)n(Cc2ccco2)c2c1C(C(F)(F)F)(C(F)(F)F)N=C(CCc1ccccc1)N2  -0.03
74. Cc1cc(C)c(C(CC(=O)c2cccs2)C(C#N)C#N)c(C)c1 (configuration not stated)  -0.0198
75. CC(C(=O)N1CCOCC1)N1c2cccc3cccc(c23)S1(=O)=O (configuration not stated)  0.00257
76. COc1ccc(NC(=O)c2ccccn2)cc1  0.00324
77. COc1cc(C(=O)NCc2ccc(-c3nc4ccccc4s3)cc2)cc(OC)c1OC  0.0202
78. O=c1c2cc(Br)ccc2nc2n1CCCCC2  0.0247
79. CCN1CCCC1CN(Cc1cc2ccc(C)cc2[nH]c1=O)C(=S)Nc1ccc(OC)cc1OC (configuration not stated)  0.0263
80. Cc1cc(C(=O)CN2CCC(C)CC2)c(C)n1-c1ccccc1F  0.0395
81. COc1ccc(NC(=O)c2cc(S(=O)(=O)NCC3COc4ccccc4O3)ccc2F)cc1 (configuration not stated)  0.0414
82. O=C(c1cccc(S(=O)(=O)N2CCCCC2)c1)N1CCN(S(=O)(=O)c2ccc(F)cc2)CC1  0.0439
83. Nc1nc(-c2ccccc2)cs1  0.0667
84. O=S(=O)(Nc1ccc(Oc2ncccn2)c(Cl)c1)c1ccc(F)cc1  0.0698
85. COc1ccc(-c2nn(-c3ccccc3)cc2/C=N/NC(=O)c2cccc(S(=O)(=O)Nc3ccccc3OC)c2)cc1  0.102
86. COC(=O)NCc1ccc2c(c1)OCO2  0.119
87. COc1cc(/C=C/C(=O)OCC(=O)Nc2cccc(Oc3ccccc3)c2)ccc1O  0.137
88. Cc1cc(C)cc(NC(=O)C(Nc2ccccc2)c2ccccc2)c1 (configuration not stated)  0.168
89. Cc1ccc(Nc2nc(N)c([N+](=O)[O-])c(NCc3ccco3)n2)cc1C  0.169
90. O=C(c1ccncc1)N1CCN(c2ccc(F)cc2)CC1  0.171
91. Cc1ccc(C(=O)N[C@H](C(=O)OCC(=O)c2ccc[nH]2)C(C)C)cc1  0.173
92. Nc1ccc2nc(SCC(=O)Nc3ccc(N4CCOCC4)c(Cl)c3)sc2c1  0.205
93. CCc1ccc(C(=O)Nc2nnn(CC)n2)cc1  0.223
94. Cc1ccc(-c2csc3ncnc(NCCN4CCOCC4)c23)cc1  0.256
95. CCN(CC(=O)N1CCOCC1)S(=O)(=O)c1ccc(C)cc1  0.278
96. OCC(Cc1ccccc1)NCc1ccccc1C(F)(F)F (configuration not stated)  0.279
97. Cc1csc(SCc2nnc(-c3ccc(Cl)cc3)o2)n1  0.286
98. CCOC(=O)C(CCCOc1ccc(C)cc1)C(=O)OCC  0.303
99. Cc1cc(C(=O)Nc2c(F)cc(F)cc2Br)c(C)o1  0.311
100. COc1ccc(C(=O)OCCN2C(=O)c3ccccc3C2=O)cc1  0.369
101. CNC(=O)c1cc2c(=O)n3cccc(C)c3nc2n(C(C)C)c1=N  0.569
102. O=c1oc(-c2ccco2)nc2sc3c(c12)CCCC3  0.57
103. COC(=O)[C@H](CCSC)NC(=O)NCc1ccccc1F  0.587
104. COc1cccc(C(=O)Nc2cccc(C(=O)N3CCOCC3)c2)c1  0.605
105. COc1cc(/C=N/n2c(C)n[nH]c2=S)ccc1OCc1ccccc1  0.69
106. Cc1nnc(NC(=O)c2ccc3ccccc3c2)o1  0.744
107. COc1cc(CNCCO)cc(Br)c1OCc1cccs1  0.766
108. N#CCSc1ncnc2c1cnn2CCO  0.841
109. COc1cc(CNCCSc2nnnn2C)cc(Br)c1OCc1ccc(F)cc1  1.66
110. Cc1cnc(C(=O)Nc2nnc(C)s2)cn1  1.98

Cc1c([N+](=O)[O-])cc(C(=O)Oc2ccc(Br)cc2C(=S)N2CCCCC2)cc1[N+](=O)[O-] was tested, and the z-score was active: 3.58.
For Cc1cccc(C)c1NC(=S)NC(=O)c1ccccc1F, the z-score was active: 7.93.
